Drawing on the supplement of paper PMC9446081, this text covers relative growth for 61 molecules.

Screen size: about 39,000 compounds; about 220 (0.56%) showed activity. Some of the results follow.
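Also: static incubation at 37 °C against the wild-type strain, values averaged over two biological replicates.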

In this assay the test system is Escherichia coli K-12 BW25113. Put plainly: relative growth (OD600 normalised to plate interquartile mean) (fraction); higher = less growth inhibition, active = 0.2 or less. As to conditions: 50 µM; LB; incubation time: overnight (16-24 h).
In the case of `CN(C)CC(=O)N[C@H]1C=C[C@H](CC(=O)NCCN2CCCCC2)O[C@@H]1CO`, the relative growth was inactive: 0.974. `C[C@H]1CN([C@@H](C)CO)C(=O)c2cc(NC(=O)C3CC3)ccc2O[C@H]1CN(C)C(=O)Nc1ccc2c(c1)OCO2`: the relative growth was inactive: 1. In the case of `Cc1ccc(S(=O)(=O)Nc2ccc3c(c2)C(=O)N([C@@H](C)CO)C[C@H](C)[C@H](CN(C)C(=O)Nc2ccccc2)OCCCC[C@@H](C)O3)cc1`, the relative growth is inactive: 0.984. Take `C[C@@H]1CN([C@H](C)CO)C(=O)c2cc(-c3ccc(C(=O)N(C)C)cc3)cnc2O[C@H]1CN(C)C(=O)CN(C)C`: the relative growth is inactive: 1. Consider `COc1ccc(S(=O)(=O)N2C[C@@H](O)COC[C@@H]3O[C@H](CC(=O)NCCCN(C)C)CC[C@H]32)cc1`, for which the relative growth is inactive: 0.929.

On to `CC(C)NC(=O)N1CC[C@@H]2N(S(C)(=O)=O)CC[C@@]2(C(=O)N2CCOCC2)CC1`, for which the relative growth was inactive: 0.993. Under `Cc1noc(C)c1NC(=O)N(C)C[C@H]1OCCCC[C@H](C)Oc2ccc(NS(=O)(=O)c3ccc(F)cc3)cc2C(=O)N([C@@H](C)CO)C[C@H]1C` stands inactive: 1. `O=C(C[C@H]1CC[C@H]2[C@@H](COC[C@@H](O)CN2C(=O)c2cnccn2)O1)N1CCN(c2ccccc2)CC1`: the relative growth is inactive: 1.03. For `C[C@H]1CN([C@@H](C)CO)C(=O)c2cccc(NS(=O)(=O)c3cccs3)c2O[C@@H]1CN(C)C(=O)Nc1cccc2ccccc12`, the relative growth is inactive: 0.984. Regarding `COc1ccc(NC(=O)Nc2ccc3c(c2)C(=O)N([C@@H](C)CO)C[C@H](C)[C@@H](CN(C)S(=O)(=O)c2c(C)noc2C)OCCCC[C@H](C)O3)cc1`, the relative growth was inactive: 1.02. In the case of `COc1ccc(S(=O)(=O)Nc2cccc3c2O[C@@H](CN(C)Cc2ccc(Oc4ccccc4)cc2)[C@@H](C)CN([C@H](C)CO)C3=O)cc1`, the relative growth is inactive: 0.981. Turning to `Cc1cc(C2(c3cc(C)c(N)c(C)c3)CCCCC2)cc(C)c1N`, the relative growth is inactive: 1.03. As to `C[C@H](CO)N1C[C@H](C)[C@@H](CN(C)Cc2ccncc2)OCCCC[C@H](C)Oc2ccc(NC(=O)c3ccccc3)cc2C1=O`, the relative growth is inactive: 1.

For `Cc1noc(C)c1S(=O)(=O)N(C)C[C@@H]1Oc2ccc(NC(=O)Cc3cn(C)c4ccccc34)cc2CC(=O)N([C@@H](C)CO)C[C@H]1C`, the relative growth is inactive: 0.986.

Consider `Cc1nc(-c2ccc(Cl)cc2)c(-c2ccccc2)s1`, for which the relative growth is inactive: 0.946. Regarding `C[C@@H]1CN([C@H](C)CO)C(=O)c2cc(NC(=O)C3CCCCC3)ccc2O[C@@H](C)CCCCO[C@@H]1CN(C)C(=O)c1ccncc1`, the relative growth is inactive: 0.984. `S=C(NCCCc1cnc[nH]1)NCCCN(Cc1ccc(Cl)c(Cl)c1)c1ccc(Br)cn1`: the relative growth was inactive: 0.823. Regarding `CC(C)C[C@H](NC(=O)CNC(=O)c1cc(Cl)ccc1Cl)B1OC(=O)C[C@](CC(=O)O)(C(=O)O)O1`, the relative growth is inactive: 0.879. As to `C[C@@H]1CCCCO[C@H](CN(C)C(=O)Nc2ccc(C(F)(F)F)cc2)[C@@H](C)CN([C@H](C)CO)C(=O)c2cc(NC(=O)c3ccccc3)ccc2O1`, the relative growth was inactive: 1.02. `COc1ccc2c3c(n(c2c1)C)[C@@H](CO)N(C[C@]13CCN(CC1)CC1CCOCC1)C(=O)Cc1ccccn1`: the relative growth is inactive: 1.01. For `CC(C)NC(=O)N(C)C[C@H]1Oc2ccc(NC(=O)Nc3ccc4c(c3)OCO4)cc2C(=O)N([C@H](C)CO)C[C@@H]1C`, the relative growth is inactive: 0.981. Under `O=C(NCc1ccccc1)[C@@H](c1ccco1)N(Cc1ccc(Br)cc1)C(=O)Cc1ccccc1` stands inactive: 0.977; under `C[C@H](CO)N1C[C@H](C)[C@H](CN(C)Cc2ccc(C(=O)Nc3ccccc3N)cc2)Oc2c(NC(=O)Nc3cccc4ccccc34)cccc2C1=O`, inactive: 0.977. Consider `CC(C)C#Cc1ccc2c(c1)O[C@H](CN(C)C(=O)c1cnccn1)[C@@H](C)CN([C@H](C)CO)S2(=O)=O`, for which the relative growth was inactive: 0.979. Take `CCS(=O)(=O)Nc1ccc2c(c1)C(=O)N(C)[C@@H]1CC[C@H](CC(=O)NCc3ccccc3F)O[C@@H]1CO2`: the relative growth was inactive: 1.

With `CC(C)(C)NC[C@@H](O)c1ccc(O)c(CO)c1.CC(C)(C)NC[C@@H](O)c1ccc(O)c(CO)c1.O=S(=O)(O)O`, the relative growth is inactive: 1.03. In the case of `CC(C)NC(=O)Nc1ccc2c(c1)C(=O)N([C@H](C)CO)C[C@H](C)[C@@H](CN(C)C(=O)Nc1ccccc1)OCCCC[C@@H](C)O2` it was inactive: 0.995; in that of `C=CC[C@@H](CC(=O)N(CCO)Cc1ccccc1)C(=O)N[C@H](COC(=O)[C@@H](CC=C)Cc1ccc(F)cc1)C(C)(C)C`, inactive: 1.05; in that of `CC(CN(C)C)CN1c2ccccc2CCc2ccccc21.O=C(O)C=CC(=O)O` (stereo unspecified), inactive: 1.01. With `CC1(O)CCC(C(C)(C)O)CC1.O` (stereo unspecified), the relative growth is inactive: 0.959. As for `COc1cc(C)c(C(=O)Oc2cc(C)c(C(=O)O)c(O)c2)c(O)c1`, the relative growth is inactive: 1.08. Turning to `C[C@@H]1CN([C@H](C)CO)C(=O)c2cc(C#Cc3ccccc3F)cnc2O[C@H]1CN(C)C(=O)c1ccc2c(c1)OCO2`, the relative growth is inactive: 0.999. Regarding `C[C@@H]1CN([C@@H](C)CO)C(=O)c2cc(NC(=O)c3ccncc3)ccc2O[C@H]1CN(C)S(=O)(=O)c1ccccc1`, the relative growth is inactive: 0.995. Under `Cc1noc(C)c1S(=O)(=O)Nc1ccc2c(c1)C(=O)N([C@H](C)CO)C[C@@H](C)[C@@H](CN(C)S(=O)(=O)c1c(C)noc1C)O2` stands inactive: 1.02; under `Cc1noc(C)c1S(=O)(=O)N(C)C[C@@H]1Oc2c(NS(=O)(=O)c3cccs3)cccc2C(=O)N([C@H](C)CO)C[C@@H]1C`, inactive: 1.01.

In the case of `O=C(O)c1cc(O)ccc1O`, the relative growth is inactive: 0.959. With `COc1ccc(S(=O)(=O)Nc2ccc3c(c2)C(=O)N([C@@H](C)CO)C[C@@H](C)[C@H](CN(C)C(=O)C2CCCCC2)OCCCC[C@H](C)O3)cc1`, the relative growth was inactive: 1.03.

As for `C[C@@H]1CN([C@@H](C)CO)C(=O)Cc2cc(NC(=O)Nc3ccc4c(c3)OCO4)ccc2O[C@@H]1CN(C)Cc1ccc(C(F)(F)F)cc1`, the relative growth is inactive: 1.05. Take `C[C@H](CO)N1C[C@H](C)[C@H](CN(C)S(=O)(=O)c2ccc(Cl)cc2)Oc2ccc(NC(=O)Nc3cccc4ccccc34)cc2CC1=O`: the relative growth was inactive: 1.02. For the molecule `C[C@H](CO)N1C[C@H](C)[C@@H](CN(C)S(=O)(=O)c2cccs2)Oc2c(NC(=O)C3CC3)cccc2C1=O`, the relative growth was inactive: 1.01. In the case of `CC(C)NC(=O)N(C)C[C@H]1Oc2ccc(NC(=O)CCC(F)(F)F)cc2CC(=O)N([C@H](C)CO)C[C@H]1C` it was inactive: 0.998. On to `O=C(N[C@H]1CC[C@H](CCn2cc(C3(O)CCCC3)nn2)O[C@@H]1CO)C1CCOCC1`, for which the relative growth is inactive: 0.981. As for `COc1cc2c(cc1OC)[C@@]13ON=C(c4ccc(OCCOC(=O)NCCCCCC(=O)NO)cc4)[C@@H]1CCN3CC2`, the relative growth is inactive: 0.962.

On to `COc1ccc2c3c([nH]c2c1)[C@H](CO)N(C[C@]13CCN(CC1)Cc1ccccc1)C(=O)CN1CCOCC1`, for which the relative growth is inactive: 1.02. Take `C[C@H](CO)N1C[C@H](C)[C@H](CN(C)S(=O)(=O)c2ccc(F)cc2)Oc2ncc(C#CCN(C)C)cc2C1=O`: the relative growth was inactive: 1.01. As to `C[C@H](CO)N1C[C@H](C)[C@@H](CN(C)S(=O)(=O)c2cccs2)Oc2ccc(NC(=O)CCN3CCOCC3)cc2CC1=O`, the relative growth is inactive: 1.01. As to `C[C@]12C[C@@H]3C[C@](C)(C1)C[C@@](N)(C3)C2`, the relative growth was inactive: 1.04. In the case of `C[C@@H]1CN([C@H](C)CO)C(=O)c2cc(C#CCc3ccccc3)cnc2O[C@H]1CN(C)C(=O)Cc1cccnc1` it was inactive: 1.01; in that of `C[C@@H]1CCCCO[C@H](CN(C)Cc2ccc3c(c2)OCO3)[C@H](C)CN([C@@H](C)CO)C(=O)c2cc(NC(=O)NC3CCCCC3)ccc2O1`, inactive: 1.01. On to `C[C@@H](N)c1cnn(-c2ccccc2F)c1`, for which the relative growth was inactive: 0.987. In the case of `COc1ccc(S(=O)(=O)Nc2ccc3c(c2)CC(=O)N([C@H](C)CO)C[C@H](C)[C@@H](CN(C)S(=O)(=O)c2ccc(C)cc2)O3)cc1`, the relative growth is inactive: 1.02.

For the molecule `C[C@H]1CN([C@@H](C)CO)C(=O)Cc2cc(NC(=O)CCCCCC(=O)Nc3ccccc3N)ccc2O[C@H]1CN(C)C(=O)Nc1ccc(F)cc1`, the relative growth is inactive: 0.996. Regarding `C[C@H]1CN([C@@H](C)CO)C(=O)Cc2cc(NC(=O)c3ccncc3)ccc2O[C@@H]1CN(C)S(=O)(=O)c1cn(C)cn1`, the relative growth is inactive: 0.994. Under `C[C@@H]1CCCCO[C@H](CN(C)C(=O)Nc2cccc3ccccc23)[C@@H](C)CN([C@@H](C)CO)C(=O)c2cc(NS(C)(=O)=O)ccc2O1` stands inactive: 0.986.

As to `CCCNC(=O)N(C)C[C@@H]1Oc2ncc(-c3ccc(C(=O)N(C)C)cc3)cc2C(=O)N([C@@H](C)CO)C[C@@H]1C`, the relative growth was inactive: 1.01. On to `C[C@@H]1CCCCO[C@@H](CN(C)CC2CCCCC2)[C@H](C)CN([C@@H](C)CO)C(=O)c2cc(NC(=O)c3ccncc3)ccc2O1`, for which the relative growth is inactive: 1.

In the case of `C[C@@H]1CN([C@H](C)CO)C(=O)c2cc(NC(=O)Cn3cnnn3)ccc2O[C@@H]1CN(C)S(=O)(=O)c1cccs1`, the relative growth was inactive: 1.04.

On to `COCC(=O)N1C[C@]2(C1)CN([C@H](CO)c1c2c2ccc(cc2n1C)OC)C(=O)CN1CCOCC1`, for which the relative growth was inactive: 0.983.

`N[C@H](CO)COCc1ccccc1`: the relative growth is inactive: 1. As for `C[C@@H]1CCCCO[C@H](CN(C)C(=O)Nc2ccc(C(F)(F)F)cc2)[C@H](C)CN([C@H](C)CO)C(=O)c2cc(NC(=O)c3ccncc3)ccc2O1`, the relative growth is inactive: 1.03. In the case of `O=C(C[C@H]1CC[C@@H]2[C@H](COC[C@@H](O)CN2S(=O)(=O)c2ccccc2)O1)N[C@H]1CCN(Cc2ccccc2)C1`, the relative growth is inactive: 0.998.
